In all, about 310,000 compounds went through this assay and about 14,000 (4.5%) showed an effect of 50% or more. Effects have a minus sign here. This is one part of the list.
These compounds were tested against human ether-à-go-go-related gene (hERG) potassium channel (human, UniProt Q12809) (assay: primary screen, population patch clamp on CHO cells stably expressing hERG).
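Note: peak tail current of the secondary pulse compared with the same well before compound.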

human ether-à-go-go-related gene (hERG) potassium channel, sequence (Q12809 whole entry, looked up): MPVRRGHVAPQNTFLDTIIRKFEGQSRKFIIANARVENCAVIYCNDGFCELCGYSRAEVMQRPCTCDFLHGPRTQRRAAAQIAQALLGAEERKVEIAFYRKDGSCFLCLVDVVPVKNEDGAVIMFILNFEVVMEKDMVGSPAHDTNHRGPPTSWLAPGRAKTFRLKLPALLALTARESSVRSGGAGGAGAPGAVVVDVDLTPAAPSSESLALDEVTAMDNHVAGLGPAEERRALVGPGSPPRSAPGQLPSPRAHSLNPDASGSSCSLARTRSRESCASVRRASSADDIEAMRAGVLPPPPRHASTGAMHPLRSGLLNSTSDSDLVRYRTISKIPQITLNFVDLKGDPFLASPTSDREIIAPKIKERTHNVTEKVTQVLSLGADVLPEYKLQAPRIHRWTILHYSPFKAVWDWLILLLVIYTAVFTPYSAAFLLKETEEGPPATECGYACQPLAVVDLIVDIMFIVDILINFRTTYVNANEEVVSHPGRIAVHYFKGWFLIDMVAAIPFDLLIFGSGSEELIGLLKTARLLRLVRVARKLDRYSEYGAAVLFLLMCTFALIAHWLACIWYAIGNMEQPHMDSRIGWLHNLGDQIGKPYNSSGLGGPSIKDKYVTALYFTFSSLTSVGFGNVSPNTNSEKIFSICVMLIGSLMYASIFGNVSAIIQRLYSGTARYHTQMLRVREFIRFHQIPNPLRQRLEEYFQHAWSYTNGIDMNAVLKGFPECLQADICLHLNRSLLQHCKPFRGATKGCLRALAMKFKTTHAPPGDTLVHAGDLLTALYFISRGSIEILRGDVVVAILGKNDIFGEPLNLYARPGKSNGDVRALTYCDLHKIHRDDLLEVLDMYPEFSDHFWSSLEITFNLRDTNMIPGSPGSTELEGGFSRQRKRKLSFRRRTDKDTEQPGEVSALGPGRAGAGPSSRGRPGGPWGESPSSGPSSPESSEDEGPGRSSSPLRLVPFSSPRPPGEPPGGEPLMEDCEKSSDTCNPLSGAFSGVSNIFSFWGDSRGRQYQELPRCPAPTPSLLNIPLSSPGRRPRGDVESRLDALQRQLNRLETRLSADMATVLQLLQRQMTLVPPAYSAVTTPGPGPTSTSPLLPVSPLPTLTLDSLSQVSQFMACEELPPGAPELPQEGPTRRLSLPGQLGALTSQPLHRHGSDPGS

Row | Compound | hERG current change (%, negative = inhibition) at 10uM
1 | Cc1sc2nc(CSC(C)C(=O)N(C)CC(=O)Nc3ccccc3C(F)(F)F)[nH]c(=O)c2c1C (stereo not shown) | -3.02%
2 | COc1cc(-c2nnc(SCc3cc(=O)oc4cc(C)ccc34)o2)cc(OC)c1OC | 1.52%
3 | COc1ccc(-c2csc(Cc3nnc4n3CCCCC4)n2)cc1 | -21.8%
4 | O=C(N/N=C/c1cc([N+](=O)[O-])ccc1Cl)c1cc(-c2ccccc2)nc2ccccc12 | 7.64%
5 | COc1ccc(C(CC(=O)N2CCCC(C)C2)c2c(OC)cc(OC)c3ccc(=O)oc23)cc1 (stereo not shown) | -1.32%
6 | COc1ccc(N2CCN(CC(=O)c3ccccc3)CC2)cc1 | 11%
7 | O=C(CNc1ccc(F)cc1)N/N=C/C1CC=CCC1 (stereo not shown) | 2.89%
8 | FC(F)(F)Oc1ccc(NC(=S)NCCCN2CCOCC2)cc1 | -20.5%
9 | CC[C@H](C)[C@@H]1NC(=O)c2cc([N+](=O)[O-])cc(F)c2OCC[C@@H](C(N)=O)NC(=O)[C@H](CCCCN)NC1=O | 2.93%
10 | CCN(CCO)c1ccc(-n2c(N)c(C(=O)OC)c3nc4ccccc4nc32)cc1 | -9.18%
11 | O=C(O)c1cccc(-c2ccc(/C=N/Nc3ccc([N+](=O)[O-])cc3)o2)c1 | 8.16%
12 | O=C(OCC(=O)N1CCCC1)c1c[nH]c2ccccc12 | 0.459%
13 | Cc1ccc(-c2nc3ccc(C)cn3c2CC(=O)N(C)C)cc1.O=C(O)C(O)C(O)C(=O)O | -21.6%
14 | O=[N+]([O-])c1cccnc1Sc1ccccc1Cl | 14.6%
15 | Cc1ccc(C)c(Nc2cc(C(=O)NCc3cccnc3)c3ccccc3n2)c1 | -21.7%
16 | CN1C(c2ccccc2)CC(=NO)CC1c1ccccc1 (stereo not shown) | 12.4%
17 | COc1ccc(/C=C2\SC(N3CCc4ccccc4C3)=NC2=O)cc1OC | 1.66%
18 | Cc1cc(C)cc(Oc2c(C(F)(F)F)oc3cc(OCC(=O)O)ccc3c2=O)c1 | 4.25%
19 | O=C1c2ccc([N+](=O)[O-])cc2C(=O)N1CNc1ccccn1 | 18.5%
20 | Cc1nnc(SCC(=O)Nc2ccc(S(=O)(=O)N3CCCCC3)cc2)s1 | 6.42%
21 | c1ccc2c(c1)ncn2-c1ncnc2sc3c(c12)CCCC3 | -27.2%
22 | CCOc1cc2[nH]c(=O)n(CCC(=O)NCCc3ccccc3)c(=O)c2cc1OCC | -2.33%

Row | Compound | hERG current change (%, negative = inhibition) at 10uM
23 | CCCN(CC(=O)Nc1ccccc1OC)C(=O)CCC(=O)c1ccc(Cl)s1 | -39.4%
24 | Oc1ccccc1/C=N/NP(=S)(c1ccccc1)c1ccccc1 | 28.7%
25 | Cc1ccc([N+](=O)[O-])cc1NC(=S)NC(=O)c1ccco1 | 0.675%
26 | Cn1c(=O)c(=O)n(C)c2cc(S(=O)(=O)Nc3ccc4c(c3)OCCO4)ccc21 | 20.3%
27 | CCOc1cc(-c2cc(N)n[nH]2)cc(OCC)c1OCC | 14.6%
28 | CCCCCN(C(=O)NC(=O)Nc1cccc(C)c1C)S(C)(=O)=O | 12.4%
29 | CN1CCN(c2ccc(S(=O)(=O)Nc3ccccc3)cc2[N+](=O)[O-])CC1 | -4.26%
30 | CC1CCN2c3nc4ccccn4c(=O)c3CC3(C(=O)N(C)C(=O)N(C)C3=O)C2C1 (stereo not shown) | 8.47%
31 | O=C(CSCC(=O)N1CCOCC1)Nc1nc(-c2ccc3c(c2)OCO3)cs1 | -19.4%
32 | COc1ccc(CCC(=O)NCc2cccc(C(F)(F)F)c2)cc1 | 0.407%
33 | O=C(NC1CCN(Cc2ccccc2)CC1)C1CCN(S(=O)(=O)c2ccc(Cl)cc2)CC1 | -73.2%
34 | O=c1c(-c2ccccc2)c(-c2ccccc2)oc2cc(O)cc(O)c12 | 2.56%
35 | Cc1ccc(-c2ccnc3c(Cl)c(C)nn23)cc1 | 16.7%
36 | CC(C)CC(=O)Nc1ccc(S(=O)(=O)NCc2ccco2)cc1 | -7.54%
37 | COc1cc(C(=O)NNC(=O)c2n[nH]c3ccccc23)cc(OC)c1OC | -12.6%
38 | Cc1ccc(-n2ncc3c2CCCC3NC(=O)c2cnccn2)cc1C (stereo not shown) | 4.61%
39 | Cc1c(Cl)cccc1NC(=O)CSc1nncn1-c1cccnc1 | 20.2%
40 | CCC(=O)NC(NC(=S)Nc1cccc2cccnc12)C(Cl)(Cl)Cl (stereo not shown) | -5.91%
41 | O=C(Nc1nc(-c2ccco2)c(-c2ccco2)s1)c1c(F)cccc1Cl | -8.52%
42 | CC(=O)Nc1ccc(S(=O)(=O)N2CCN(Cc3ccccc3[N+](=O)[O-])CC2)cc1 | 14.8%
43 | O=S(=O)(NCc1cccnc1)c1ccc(Cl)c(Cl)c1 | -10.9%
44 | CN(Cc1ccccc1)C(=O)COC(=O)c1cncc(Br)c1 | -8.11%

Row | Compound | hERG current change (%, negative = inhibition) at 10uM
45 | Cc1ccc(NC(=O)CCCC(=O)O)c(Br)c1 | 12%
46 | O=C(CSc1ccccc1)Nc1nc2ccccc2[nH]1 | -1.15%
47 | COc1ccccc1NC(=O)c1ccc(S(=O)(=O)NCc2ccco2)cc1 | -2.21%
48 | COCCNC(=O)c1onc(CSc2cccc(OC)c2)c1C(=O)O | 4.46%
49 | COc1ccc(CC(=O)OC(C)CN2CCOCC2)cc1 (stereo not shown) | 13.4%
50 | Cc1cccc(COC(=O)Nc2ccc(NC(=O)c3ccccc3Cl)cc2)c1 | 18.6%
51 | CCN1C(=O)[C@H]2[C@@H](c3ccc(C)cc3)N3C(=O)N(c4ccc(C)cc4)C(=O)[C@@]3(C)[C@H]2C1=O | 10.6%
52 | Cc1nn(CCCC(=O)NCc2ccccc2)c(=O)c2nccn12 | -15.8%
53 | CC(=O)N/C(=C\c1ccccc1)C(=O)Nc1ccc(O)cc1 | 6.5%
54 | CCCCC(NC(=O)Cc1c(C)c2cc3c(C)c(C)oc3c(C)c2oc1=O)C(=O)O (stereo not shown) | -13.3%
55 | CC(=O)c1ccc(-c2cc([C@H]3[C@H]4C=CC[C@@H](C)[C@@H]4C(=O)N3Cc3ccccc3)ccc2F)cc1 | 12%
56 | CC1CCCC(C)N1CCCNC(=O)CN1C(=O)COc2ccc(S(=O)(=O)N3CCOCC3)cc21 (stereo not shown) | -36.1%
57 | CCCCN(C)C(=O)Cn1cnc2sc(C)c(S(=O)(=O)N3CCN(c4ccccc4OC)CC3)c2c1=O | 5.47%
58 | CCc1ccccc1NC(=O)COc1ccc2c(=O)c(Oc3cc(C)ccc3C)coc2c1 | 10.5%
59 | c1csc(-c2nn3c(Cn4nnc5ccccc54)nnc3s2)c1 | 16.6%
60 | Cc1noc(NS(=O)(=O)c2ccc(N/C=C\C(=O)c3ccc(F)cc3)cc2)c1C | -30.4%
61 | COc1cccc(N(C(C)=O)C2=NCCCS2)c1 | 9.39%
62 | Cc1ccc(CNC(=O)Cc2ccc(-n3cccc3)cc2)cc1 | 26.4%
63 | COC(=O)c1cc2occc2n1Cc1nc(-c2ccccc2Cl)oc1C | -8.85%
64 | N#CCSc1nnc(Cc2cccs2)n1C1CCCCC1 | -9.08%
65 | Br.CCCn1c(=N)n(CC(=O)c2ccc(OCC(=O)OC)cc2)c2ccccc21 | -52.7%
66 | CCOc1ccc(NC(=O)CN(C)C(=O)CC2CC3CCC2C3)cc1OCC (stereo not shown) | 1.29%

Row | Compound | hERG current change (%, negative = inhibition) at 10uM
67 | COc1ccccc1OCCNC(=O)CNC(=O)c1ccc(Cl)c(Cl)c1 | -8.73%
68 | N#CCN1C(=O)C(=O)N(Cc2cccc(C(F)(F)F)c2)C1=O | 18.5%
69 | O=C(CCSc1nnc(-c2ccco2)o1)Nc1ccc(Cl)cc1 | 5.02%
70 | COC(=O)c1ccc(NC(=S)N2CCN(Cc3ccccc3Cl)CC2)cc1 | 3.79%
71 | CC1CCc2c(C(=O)Nc3cccc(-c4nn[nH]n4)c3)csc2C1 (stereo not shown) | 4.03%
72 | O=C(CCCn1c(=S)[nH]c2ccccc2c1=O)NCc1ccco1 | -4.16%
73 | CC(C)(C)c1ccc(OCC(=O)N/N=C/c2ccsc2)cc1 | -2.47%
74 | Cc1ccc2nsnc2c1S(=O)(=O)N1CCN(Cc2ccc3c(c2)OCO3)CC1 | -21.5%
75 | COc1ccc(-c2cc(C(=O)Nc3cc(S(=O)(=O)N4CCOCC4)ccc3N3CCOCC3)c3ccccc3n2)cc1 | 0.501%
76 | Cl.Oc1ccc(CC2CC3CCN2CC3)cc1O (stereo not shown) | 12.7%
77 | CCCCNC(=S)NNC(=O)C12CC3CC(CC(C3)C1)C2 | -11.5%
78 | Cc1ccc(S(=O)(=O)NC(=O)N2CCCN(Cc3ccc(F)cc3)CC2)cc1 | 3.66%
79 | OC(Cc1cccnc1)(Cc1cccnc1)c1cc2ccccc2[nH]1 | 5.78%
80 | CC(C(=O)NC1CCCCC1)N(Cc1ccccc1)C(=O)c1snc(C(N)=O)c1N (stereo not shown) | -13.2%
81 | NC1=NC[C@H](Cc2ccc(O)cc2)N1CCc1cccc(F)c1 | 8.61%
82 | CCc1nc(SCC(=O)Nc2ccc(OC)cc2[N+](=O)[O-])n[nH]1 | -1.6%
83 | Cn1cccc1/C=C1\SC(=O)N(c2ccc(O)cc2)C1=O | 0.777%
84 | Cc1ccc(Nc2c(-c3ccc(N4CCOCC4)cc3)nc3ncccn23)cc1 | 8.02%
85 | Cc1cc(=O)oc2cc(NC(=O)C3COc4ccccc4O3)ccc12 (stereo not shown) | 6.62%

— PMC4336329 (PLoS ONE, 2015)
